Some of the results follow. Each Rep nickase domain was tested in vitro on the same pool of single strands (3 µM enzyme, 1 h, 37 °C); shown is the middle of each 90-letter strand. A value is the log2 ratio of uncut reads to the pool without enzyme; the lower, the more was cut; hits are not called. The scaling is to total reads; values above 0 arise when much of the pool is cut.
What was measured:
Test in all cases: uncleaved DNA left, log2 of reads against the no-enzyme library (log2 ratio); higher = less cleavage (more negative = more Rep cleavage of the k-mer); sequences stand for … in CTCGTCCG…ACCGGAGA
[1] = test system: T1, Rep nickase domain of Muscovy duck circovirus
T1 sequence (protein, residues 1-111, tag omitted): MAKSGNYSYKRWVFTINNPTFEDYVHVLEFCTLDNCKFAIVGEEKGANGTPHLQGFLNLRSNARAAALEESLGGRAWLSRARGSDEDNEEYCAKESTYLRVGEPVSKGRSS
Method: (§1)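 A pool of 90-nt single-stranded DNAs with seven random bases just before the constant AC of the nick site (name = the seven bases) was cut by 3 µM recombinant His6-SUMO-tagged Rep nickase domain (300 nM DNA, 50 mM HEPES pH 8.0, 50 mM NaCl, 1 mM MnCl2, 1 h, 37 °C, three replicates). Uncut DNA was amplified and sequenced.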

[2] = test system: T2, Rep nickase domain of banana bunchy top virus
T2 sequence (protein, residues 1-94, tag omitted): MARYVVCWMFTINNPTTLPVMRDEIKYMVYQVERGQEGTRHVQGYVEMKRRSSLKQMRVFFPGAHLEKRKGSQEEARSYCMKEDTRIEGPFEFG
Method: as §1

[3] = test system: T3, Rep nickase domain of cabbage leaf curl virus
T3 sequence (protein, residues 1-116, tag omitted): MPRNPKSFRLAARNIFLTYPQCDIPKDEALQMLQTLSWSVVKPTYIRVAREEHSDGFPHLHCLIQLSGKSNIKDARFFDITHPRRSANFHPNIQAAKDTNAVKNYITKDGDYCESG
Method: as §1

[4] = test system: T4, Rep nickase domain of chickpea chlorotic dwarf virus
T4 sequence (protein, residues 1-124, tag omitted): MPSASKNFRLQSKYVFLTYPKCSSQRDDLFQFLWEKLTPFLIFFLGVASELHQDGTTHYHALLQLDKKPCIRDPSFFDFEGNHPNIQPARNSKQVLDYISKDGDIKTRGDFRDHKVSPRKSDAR
Method: as §1

[5] = test system: T5, Rep nickase domain of faba bean necrotic yellows virus
T5 sequence (protein, residues 1-98, tag omitted): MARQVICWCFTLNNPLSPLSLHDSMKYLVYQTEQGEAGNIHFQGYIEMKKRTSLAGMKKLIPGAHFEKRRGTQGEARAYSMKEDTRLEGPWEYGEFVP
Method: as §1

[6] = test system: T6, Rep nickase domain of maize striate mosaic virus
T6 sequence (protein, residues 1-117, tag omitted): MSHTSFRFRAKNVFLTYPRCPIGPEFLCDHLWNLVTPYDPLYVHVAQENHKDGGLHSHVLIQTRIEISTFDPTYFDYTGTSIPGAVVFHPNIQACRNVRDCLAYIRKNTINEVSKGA
Method: as §1

[7] = test system: T7, Rep nickase domain of porcine circovirus 2
T7 sequence (protein, residues 2-116, tag omitted): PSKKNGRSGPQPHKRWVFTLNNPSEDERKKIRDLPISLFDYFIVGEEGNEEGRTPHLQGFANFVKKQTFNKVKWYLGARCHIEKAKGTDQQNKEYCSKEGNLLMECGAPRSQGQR
Method: as §1

[8] = test system: T8, Rep nickase domain of tomato golden mosaic virus
T8 sequence (protein, residues 1-124, tag omitted): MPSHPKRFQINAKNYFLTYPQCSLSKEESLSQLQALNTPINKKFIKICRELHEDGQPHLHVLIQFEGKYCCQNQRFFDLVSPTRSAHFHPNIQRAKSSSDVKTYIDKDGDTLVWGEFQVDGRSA
Method: as §1

[9] = test system: T9, Rep nickase domain of tomato yellow leaf curl virus
T9 sequence (protein, residues 1-136, tag omitted): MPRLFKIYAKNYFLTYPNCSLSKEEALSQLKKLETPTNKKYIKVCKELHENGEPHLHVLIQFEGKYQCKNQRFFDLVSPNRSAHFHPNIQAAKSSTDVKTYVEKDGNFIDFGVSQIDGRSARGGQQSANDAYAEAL
Method: as §1

[10] = test system: T10, Rep nickase domain of wheat dwarf virus
T10 sequence (protein, residues 1-137, tag omitted): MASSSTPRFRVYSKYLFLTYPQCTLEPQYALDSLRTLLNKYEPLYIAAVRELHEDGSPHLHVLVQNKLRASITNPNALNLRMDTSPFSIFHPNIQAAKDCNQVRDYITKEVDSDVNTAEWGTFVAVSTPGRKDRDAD
Method: as §1

Sequence	uncleaved DNA left (log2) [1]	uncleaved DNA left (log2) [2]	uncleaved DNA left (log2) [3]	uncleaved DNA left (log2) [4]	uncleaved DNA left (log2) [5]	uncleaved DNA left (log2) [6]	uncleaved DNA left (log2) [7]	uncleaved DNA left (log2) [8]	uncleaved DNA left (log2) [9]	uncleaved DNA left (log2) [10]
TGTTGAA	-0.0117	-0.0244	-0.00334	-0.131	-0.103	-0.114	-0.0809	0.0553	-0.0049	-0.121
AGTGCAT	0.01	0.0646	0.112	0.556	-0.124	0.415	-2.13	0.00907	0.0225	0.0631
GAGTTGC	-0.0206	-0.0673	-0.467	-0.279	0.0663	-0.807	0.0158	-0.157	0.025	-0.104
TCGAGCG	0.131	0.153	-0.0515	0.285	0.124	-0.509	0.196	0.124	0.0819	-0.0157
ATGACCT	-0.169	0.0727	-0.00272	0.323	0.00576	0.779	-0.126	-0.0464	-0.0603	0.112
GACTGTA	0.0628	-0.0011	0.0729	0.302	0.077	1.25	-2.14	0.0311	0.0125	0.0945
GATCAGT	0.132	0.0585	0.23	0.343	0.121	0.42	-0.0552	0.0211	0.194	0.178
GGGCCTC	0.0889	0.0848	0.764	1.79	0.0266	2.15	0.205	0.0328	-0.0152	0.23
CGATTGA	0.204	0.161	0.131	0.806	0.129	1.35	0.181	0.109	-0.00587	0.301
ATGCCAA	-0.0257	0.0176	-0.245	-0.0909	-0.0445	-0.657	-0.0507	-0.000351	-0.078	0.0305
AAACCTC	0.0709	0.0636	0.117	-0.32	0.112	0.394	-0.209	0.0543	0.087	0.0308
ATCAGAA	0.0814	0.0999	0.132	-0.0547	0.0561	-0.632	0.133	0.0928	0.0446	0.103
ATTCGGC	-0.116	-0.106	-0.197	-0.294	-0.0363	-1.01	-0.00521	-0.0232	-0.124	-0.096
AAAGGAA	0.00855	0.00518	0.18	1.5	0.0703	1.6	0.24	0.0466	-0.176	0.134
TATCCGG	0.0148	-0.00218	0.442	1.39	-0.074	1.79	0.01	-0.00146	-0.0909	-0.0224
CCCAGTT	0.0898	-0.128	-0.209	-1.97	-0.0296	-0.506	-0.155	-0.0165	0.00387	-0.0558
TCATTTT	-3.65	-0.257	-3.03	-3.26	-0.0547	-1.46	-3.27	-0.473	-0.000551	-0.717
TTGATTT	-0.0437	-0.22	0.0509	-2.01	0.0435	-0.444	-1.11	-0.0508	0.039	-0.12
TTAAGCG	0.0099	-0.0257	-0.83	0.528	-0.0444	-0.754	0.112	-0.0481	-0.00152	-0.0647
CTAATGA	-0.0606	0.0793	-0.00456	-0.105	0.0467	-0.878	0.103	-0.00377	0.017	-0.00499
ATTTTGC	0.0711	-0.0421	-0.686	-0.0353	0.0974	-1.03	0.175	-0.0337	0.121	-0.027
GGCTAAT	-0.242	0.0254	0.618	1.43	-0.104	1.98	-2.33	0.0977	0.0756	0.0681
CCACCAC	-0.195	0.0413	-0.066	-0.909	-0.149	-0.678	-0.101	-0.134	-0.0539	-0.0314
GCCCCAA	0.091	0.184	0.288	0.603	0.0778	0.466	0.127	0.101	0.076	0.237
CTGTCCG	0.0895	0.13	-0.312	-0.19	0.142	-0.618	0.264	0.0672	0.053	-0.000392
ATCAACT	0.0901	0.0247	-0.242	-2.56	0.11	-0.828	-0.175	0.0351	0.047	0.107
AGGGCGG	0.0756	0.071	0.0511	0.554	0.0644	0.856	0.203	0.243	0.00865	-0.0269
TGGTTGT	-0.126	-0.123	-0.00853	-0.096	0.00859	-0.421	-0.904	-0.115	-0.00446	-0.0265
ATGGGAC	0.0932	0.133	0.868	1.96	-0.0519	2.08	0.26	0.181	0.00514	0.267
GTAACTG	-0.0083	-0.00315	-0.035	0.148	-0.0792	1.4	0.045	0.0462	-0.0595	0.0414
